Data reported in patent US20120101087A1, “Generation of Combinatorial Synthetic Libraries and Screening for Novel Proadhesins and Nonadhesins” (priority 2007, published 2012).
Read-outs that look alike come from different tables or passages of the source.

Tested on: Human Influenza A (H1N1)
Assay: microbe, parasite or virus in culture
Assay type: cell-based
[1] = Influenza A virus, H1N1, read-out: IC50 Influenza A, anti-infection (adhesion)
[2] = read-out: IC50 Influenza A, anti-infection (adhesion)

Row | Molecule | IC50 [1] | IC50 [2]
1 | CN(CCCNC(=O)c1ccc(O)cc1)CCCNC(=O)c1ccc2cc(O)ccc2c1 [III] | 155 µM | 
2 | N-(3-{[N-(3-propyl)-6-hydroxy-2-naphthamide]-methyl-amino}-propyl)-4-hydroxy-benzamide [compound 1] |  | 155 µM
3 | CCN(CCOC(=O)/C=C/c1ccc(O)cc1)Cc1cc(Cl)ccc1O [Compound I] | 66 µM | 
4 | CN(CCCNC(=O)c1ccc(O)cc1)CCCNC(=O)c1ccc(O)cc1 [IV] | 4080 µM | 
5 | O=C(O)/C=C/c1ccc(OS(=O)(=O)O)cc1 [Zosteric Acid, reference compound] |  | 858 µM
